According to publication PMC4824069:
Where two headings read alike, the source gives them in different places. No constants are given. Whether binding was seen depends on the method and setting. For some assays here: Binding seen in cells or lysates may run through a third protein. For some assays here: Where a sequence is shown, tags or fusion partners need not be part of it. Some entries that bind do so weakly or less than the wild type. Blank lines part the entries; values can stand above or below the molecule they belong to.

Protein sequences, listed by entry. Tags and fused reporters are not part of them.
UniProt P67870: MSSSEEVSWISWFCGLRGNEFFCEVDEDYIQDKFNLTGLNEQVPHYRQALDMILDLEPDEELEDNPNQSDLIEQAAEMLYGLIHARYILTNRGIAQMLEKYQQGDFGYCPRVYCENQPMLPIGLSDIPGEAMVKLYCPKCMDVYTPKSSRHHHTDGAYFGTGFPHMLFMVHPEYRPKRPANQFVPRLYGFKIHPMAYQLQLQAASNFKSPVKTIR
UniProt P68400: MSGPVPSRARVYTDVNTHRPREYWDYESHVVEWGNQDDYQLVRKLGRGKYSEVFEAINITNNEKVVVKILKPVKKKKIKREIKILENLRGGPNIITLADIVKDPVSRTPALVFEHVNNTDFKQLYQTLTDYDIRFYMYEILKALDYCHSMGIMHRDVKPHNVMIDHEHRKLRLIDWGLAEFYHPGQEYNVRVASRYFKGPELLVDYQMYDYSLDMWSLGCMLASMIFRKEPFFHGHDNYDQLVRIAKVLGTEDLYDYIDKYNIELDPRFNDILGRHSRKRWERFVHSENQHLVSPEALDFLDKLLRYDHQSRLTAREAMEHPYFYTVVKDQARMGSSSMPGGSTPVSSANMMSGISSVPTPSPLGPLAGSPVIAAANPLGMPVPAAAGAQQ

Assays:
HA-tagged HEY1 [1] = biological target: T1, HA-tagged HEY1 (UniProt Q9Y5J3); experiment: co-IP; HEK293T (results: HEK293) transiently co-transfected with Flag- and HA-tagged proteins; 500 μg extract on Flag M2 or HA matrix 2 h at 4°C; 20 mM Tris-HCl pH 7.4, 150 nM NaCl (so in the source), 1 mM EDTA, 1% Triton; Western blot
T1 sequence: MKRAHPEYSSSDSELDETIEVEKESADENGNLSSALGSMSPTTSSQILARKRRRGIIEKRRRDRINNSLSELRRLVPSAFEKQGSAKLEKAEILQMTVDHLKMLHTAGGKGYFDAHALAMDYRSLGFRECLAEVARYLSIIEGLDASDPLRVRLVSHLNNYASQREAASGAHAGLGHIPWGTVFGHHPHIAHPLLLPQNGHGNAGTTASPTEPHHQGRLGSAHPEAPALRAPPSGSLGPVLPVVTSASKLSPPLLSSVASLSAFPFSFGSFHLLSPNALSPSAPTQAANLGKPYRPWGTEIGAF

GST-CK2α’ fusion protein = GST-CK2α’ fusion protein (UniProt P19784); experiment: pull-down; GST-CK2α/α’/β coupled to Glutathione-Sepharose, incubated with Flag-DPF3a/b recombinant proteins 2 h at 4°C; 4.2 mM Na2HPO4, 2 mM KH2PO4, 250 mM NaCl, 10 mM KCl, 0.1% NP40, 0.5% BSA, pH 7.2; Western blot; both purified
GST-CK2β fusion protein = GST-CK2β fusion protein (UniProt P67870); experiment: as above
GST-CK2α fusion protein = GST-CK2α fusion protein (UniProt P68400); experiment: as above
HA-tagged HEY1 [2] = biological target: T1, HA-tagged HEY1; experiment: co-IP; HEK293T (results: HEK293) transiently co-transfected with Flag- and HA-tagged proteins; 500 μg extract on Flag M2 or HA matrix 2 h at 4°C; 20 mM Tris-HCl pH 7.4, 150 nM NaCl (so in the source), 1 mM EDTA, 1% Triton; Western blot; remark: listed apart in the source

Molecule: Flag-tagged BAF60c (from UniProt Q6STE5 1-483)
- binding (HA-tagged HEY1 [1]): no binding

Molecule: Flag-DPF3b recombinant protein (GST pull-down) (from UniProt Q92784-1 1-378)
- binding (GST-CK2α’ fusion protein): no binding
- binding (GST-CK2β fusion protein): no binding
- binding (GST-CK2α fusion protein): no binding

B1: Flag-DPF3a recombinant protein (GST pull-down) (protein, UniProt Q92784-2 1-357)
chain: MATVIHNPLKALGDQFYKEAIEHCRSYNSRLCAERSVRLPFLDSQTGVAQNNCYIWMEKRHRGPGLAPGQLYTYPARCWRKKRRLHPPEDPKLRLLEIKPEVELPLKKDGFTSESTTLEALLRGEGVEKKVDAREEESIQEIQRVLENDENVEEGNEEEDLEEDIPKRKNRTRGRARGSAGGRRRHDAASQEDHDKPYVCDICGKRYKNRPGLSYHYAHTHLASEEGDEAQDQETRSPPNHRNENHRPQKGPDGTVIPNNYCDFCLGGSNMNKKSGRPEELVSCADCGRSAHLGGEGRKEKEAAAAARTTEDLFGSTSESDTSTFHGFDEDDLEEPRSCRGRRSGRGSPTADKKGSC
- binding (GST-CK2β fusion protein): binds
- binding (GST-CK2α fusion protein): binds weakly

The next lines start with the values.

- binding (HA-tagged HEY1 [2]): no binding
B2: Flag-tagged DPF3a aa1–246 (domain or fragment, UniProt Q92784-2 1-246)
chain: MATVIHNPLKALGDQFYKEAIEHCRSYNSRLCAERSVRLPFLDSQTGVAQNNCYIWMEKRHRGPGLAPGQLYTYPARCWRKKRRLHPPEDPKLRLLEIKPEVELPLKKDGFTSESTTLEALLRGEGVEKKVDAREEESIQEIQRVLENDENVEEGNEEEDLEEDIPKRKNRTRGRARGSAGGRRRHDAASQEDHDKPYVCDICGKRYKNRPGLSYHYAHTHLASEEGDEAQDQETRSPPNHRNENH

- binding (HA-tagged HEY1 [2]): no binding
B3: Flag-tagged DPF3a aa292–357 (domain or fragment, UniProt Q92784-2 292-357)
chain: HLGGEGRKEKEAAAAARTTEDLFGSTSESDTSTFHGFDEDDLEEPRSCRGRRSGRGSPTADKKGSC
